Assay results reported in the supplement of paper PMC8728848.
The other results are listed elsewhere or left out.

Experiments:
Assay in all cases: glycan array binding signal (z-score within array); higher = stronger binding
Conditions in all cases: glycan notation: IUPAC condensed, linker removed; mutation: I144G
[1] = target: Gal(b1-4)GlcNAc(b1-2)Man(a1-6)[GlcNAc(b1-2)Man(a1-3)]Man(b1-4)GlcNAc(b1-4)GlcNAc
Method in brief: (§1)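 The binding signal is a Z-score computed within each array and averaged over linkers. Arrays of the same protein sequence at different concentrations or buffers were also averaged together. Data originate from 3228 arrays in the Consortium for Functional Glycomics database, kept only where the protein sequence was available.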

[2] = target: Gal(b1-4)GlcNAc(b1-2)Man(a1-6)[Man(a1-3)]Man(b1-4)GlcNAc(b1-4)GlcNAc
Method in brief: as §1

[3] = target: Gal(b1-4)GlcNAc(b1-2)[Gal(b1-4)GlcNAc(b1-4)]Man(a1-3)[Gal(b1-4)GlcNAc(b1-2)Man(a1-6)]Man(b1-4)GlcNAc(b1-4)GlcNAc
Method in brief: as §1

[4] = target: Gal(b1-4)GlcNAc(b1-2)[Gal(b1-4)GlcNAc(b1-4)]Man(a1-3)[Gal(b1-4)GlcNAc(b1-2)[Gal(b1-4)GlcNAc(b1-6)]Man(a1-6)]Man(b1-4)GlcNAc(b1-4)GlcNAc
Method in brief: as §1

[5] = target: Gal(b1-4)GlcNAc(b1-2)[Gal(b1-4)GlcNAc(b1-4)]Man(a1-3)[GlcNAc(b1-4)][Gal(b1-4)GlcNAc(b1-2)Man(a1-6)]Man(b1-4)GlcNAc(b1-4)GlcNAc
Method in brief: as §1

[6] = target: Gal(b1-4)GlcNAc(b1-2)[Gal(b1-4)GlcNAc(b1-4)]Man(a1-3)[GlcNAc(b1-4)][Gal(b1-4)GlcNAc(b1-2)[Gal(b1-4)GlcNAc(b1-6)]Man(a1-6)]Man(b1-4)GlcNAc(b1-4)GlcNAc
Method in brief: as §1

[7] = target: Gal(b1-4)GlcNAc(b1-2)[Gal(b1-4)GlcNAc(b1-6)]Man(a1-6)[Gal(b1-4)GlcNAc(b1-2)Man(a1-3)]Man(b1-4)GlcNAc(b1-4)GlcNAc
Method in brief: as §1

[8] = target: Gal(b1-4)GlcNAc(b1-2)[Gal(b1-4)GlcNAc(b1-6)]Man(a1-6)[Gal(b1-4)GlcNAc(b1-2)Man(a1-3)]Man(b1-4)GlcNAc(b1-4)[Fuc(a1-6)]GlcNAc
Method in brief: as §1

[9] = target: Gal(b1-4)GlcNAc(b1-2)[Gal(b1-4)GlcNAc(b1-6)]Man(a1-6)[GlcNAc(b1-4)][Gal(b1-4)GlcNAc(b1-2)Man(a1-3)]Man(b1-4)GlcNAc(b1-4)GlcNAc
Method in brief: as §1

[10] = target: Gal(b1-4)GlcNAc(b1-2)[Gal(b1-4)GlcNAc(b1-6)]Man(a1-6)[GlcNAc(b1-4)][Gal(b1-4)GlcNAc(b1-2)[Gal(b1-4)GlcNAc(b1-4)]Man(a1-3)]Man(b1-4)GlcNAc(b1-4)[Fuc(a1-6)]GlcNAc
Method in brief: as §1

[11] = target: Gal(b1-4)GlcNAc(b1-3)Gal(b1-3)GalNAc
Method in brief: as §1

[12] = target: Gal(b1-4)GlcNAc(b1-3)Gal(b1-3)GlcNAc
Method in brief: as §1

[13] = target: Gal(b1-4)GlcNAc(b1-3)Gal(b1-4)Glc
Method in brief: as §1

[14] = target: Gal(b1-4)GlcNAc(b1-3)Gal(b1-4)GlcNAc
Method in brief: as §1

[15] = target: Gal(b1-4)GlcNAc(b1-3)Gal(b1-4)GlcNAc(b1-2)Man(a1-3)[Gal(b1-4)GlcNAc(b1-3)Gal(b1-4)GlcNAc(b1-2)Man(a1-6)]Man(b1-4)GlcNAc(b1-4)GlcNAc
Method in brief: as §1

[16] = target: Gal(b1-4)GlcNAc(b1-3)Gal(b1-4)GlcNAc(b1-2)Man(a1-3)[Gal(b1-4)GlcNAc(b1-3)Gal(b1-4)GlcNAc(b1-2)Man(a1-6)]Man(b1-4)GlcNAc(b1-4)[Fuc(a1-6)]GlcNAc
Method in brief: as §1

[17] = target: Gal(b1-4)GlcNAc(b1-3)Gal(b1-4)GlcNAc(b1-2)[Gal(b1-4)GlcNAc(b1-3)Gal(b1-4)GlcNAc(b1-6)]Man(a1-6)[Gal(b1-4)GlcNAc(b1-3)Gal(b1-4)GlcNAc(b1-2)Man(a1-3)]Man(b1-4)GlcNAc(b1-4)GlcNAc
Method in brief: as §1

[18] = target: Gal(b1-4)GlcNAc(b1-3)Gal(b1-4)GlcNAc(b1-2)[Gal(b1-4)GlcNAc(b1-3)Gal(b1-4)GlcNAc(b1-6)]Man(a1-6)[Gal(b1-4)GlcNAc(b1-3)Gal(b1-4)GlcNAc(b1-2)Man(a1-3)]Man(b1-4)GlcNAc(b1-4)[Fuc(a1-6)]GlcNAc
Method in brief: as §1

[19] = target: Gal(b1-4)GlcNAc(b1-3)Gal(b1-4)GlcNAc(b1-3)Gal(b1-4)GlcNAc
Method in brief: as §1

[20] = target: Gal(b1-4)GlcNAc(b1-3)Gal(b1-4)GlcNAc(b1-3)Gal(b1-4)GlcNAc(b1-2)Man(a1-3)[Gal(b1-4)GlcNAc(b1-3)Gal(b1-4)GlcNAc(b1-3)Gal(b1-4)GlcNAc(b1-2)Man(a1-6)]Man(b1-4)GlcNAc(b1-4)GlcNAc
Method in brief: as §1

[21] = target: Gal(b1-4)GlcNAc(b1-3)Gal(b1-4)GlcNAc(b1-3)Gal(b1-4)GlcNAc(b1-2)Man(a1-3)[Gal(b1-4)GlcNAc(b1-3)Gal(b1-4)GlcNAc(b1-3)Gal(b1-4)GlcNAc(b1-2)Man(a1-6)]Man(b1-4)GlcNAc(b1-4)[Fuc(a1-6)]GlcNAc
Method in brief: as §1

[22] = target: Gal(b1-4)GlcNAc(b1-3)Gal(b1-4)GlcNAc(b1-3)Gal(b1-4)GlcNAc(b1-2)[Gal(b1-4)GlcNAc(b1-3)Gal(b1-4)GlcNAc(b1-3)Gal(b1-4)GlcNAc(b1-6)]Man(a1-6)[Gal(b1-4)GlcNAc(b1-3)Gal(b1-4)GlcNAc(b1-3)Gal(b1-4)GlcNAc(b1-2)Man(a1-3)]Man(b1-4)GlcNAc(b1-4)[Fuc(a1-6)]GlcNAc
Method in brief: as §1

B1: rAAL-I144G (Agrocybe aegerita), Q6WY08 (protein)
chain: MQGVNIYNISAGTSVDLAAPVTTGDIVTFFSSALNLNAGAGNPNNTTLNLFAENGAYLLHIAFRLQENVIIFNSRQPDGPWLVEQRVSDVANQFAGIDGKAMVTVFDHGDKYQVVINEKTVIQYTKQISGLTLSLSYNATEETSGFSTVVEAVTYTGLALEHHHHHH
- glycan array binding signal (z-score) [1]: -0.137
- glycan array binding signal (z-score) [2]: -0.063
- glycan array binding signal (z-score) [3]: -0.09
- glycan array binding signal (z-score) [4]: -0.082
- glycan array binding signal (z-score) [5]: -0.087
- glycan array binding signal (z-score) [6]: -0.168
- glycan array binding signal (z-score) [7]: -0.135
- glycan array binding signal (z-score) [8]: -0.055
- glycan array binding signal (z-score) [9]: -0.193
- glycan array binding signal (z-score) [10]: -0.066
- glycan array binding signal (z-score) [11]: -0.191
- glycan array binding signal (z-score) [12]: -0.158
- glycan array binding signal (z-score) [13]: -0.137
- glycan array binding signal (z-score) [14]: -0.165
- glycan array binding signal (z-score) [15]: -0.037
- glycan array binding signal (z-score) [16]: -0.086
- glycan array binding signal (z-score) [17]: -0.018
- glycan array binding signal (z-score) [18]: -0.052
- glycan array binding signal (z-score) [19]: -0.095
- glycan array binding signal (z-score) [20]: -0.097
- glycan array binding signal (z-score) [21]: -0.083
- glycan array binding signal (z-score) [22]: -0.051
